Screen size: about 310,000 compounds; about 14,000 (4.5%) showed an effect of 50% or more. Effects have a minus sign here. This is one part of the list.
The compounds below were run against human ether-à-go-go-related gene (hERG) potassium channel (human, UniProt Q12809) (assay: primary screen, population patch clamp on CHO cells stably expressing hERG).
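Further: peak tail current of the secondary pulse compared with the same well before compound.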

human ether-à-go-go-related gene (hERG) potassium channel, sequence (Q12809 whole entry, looked up): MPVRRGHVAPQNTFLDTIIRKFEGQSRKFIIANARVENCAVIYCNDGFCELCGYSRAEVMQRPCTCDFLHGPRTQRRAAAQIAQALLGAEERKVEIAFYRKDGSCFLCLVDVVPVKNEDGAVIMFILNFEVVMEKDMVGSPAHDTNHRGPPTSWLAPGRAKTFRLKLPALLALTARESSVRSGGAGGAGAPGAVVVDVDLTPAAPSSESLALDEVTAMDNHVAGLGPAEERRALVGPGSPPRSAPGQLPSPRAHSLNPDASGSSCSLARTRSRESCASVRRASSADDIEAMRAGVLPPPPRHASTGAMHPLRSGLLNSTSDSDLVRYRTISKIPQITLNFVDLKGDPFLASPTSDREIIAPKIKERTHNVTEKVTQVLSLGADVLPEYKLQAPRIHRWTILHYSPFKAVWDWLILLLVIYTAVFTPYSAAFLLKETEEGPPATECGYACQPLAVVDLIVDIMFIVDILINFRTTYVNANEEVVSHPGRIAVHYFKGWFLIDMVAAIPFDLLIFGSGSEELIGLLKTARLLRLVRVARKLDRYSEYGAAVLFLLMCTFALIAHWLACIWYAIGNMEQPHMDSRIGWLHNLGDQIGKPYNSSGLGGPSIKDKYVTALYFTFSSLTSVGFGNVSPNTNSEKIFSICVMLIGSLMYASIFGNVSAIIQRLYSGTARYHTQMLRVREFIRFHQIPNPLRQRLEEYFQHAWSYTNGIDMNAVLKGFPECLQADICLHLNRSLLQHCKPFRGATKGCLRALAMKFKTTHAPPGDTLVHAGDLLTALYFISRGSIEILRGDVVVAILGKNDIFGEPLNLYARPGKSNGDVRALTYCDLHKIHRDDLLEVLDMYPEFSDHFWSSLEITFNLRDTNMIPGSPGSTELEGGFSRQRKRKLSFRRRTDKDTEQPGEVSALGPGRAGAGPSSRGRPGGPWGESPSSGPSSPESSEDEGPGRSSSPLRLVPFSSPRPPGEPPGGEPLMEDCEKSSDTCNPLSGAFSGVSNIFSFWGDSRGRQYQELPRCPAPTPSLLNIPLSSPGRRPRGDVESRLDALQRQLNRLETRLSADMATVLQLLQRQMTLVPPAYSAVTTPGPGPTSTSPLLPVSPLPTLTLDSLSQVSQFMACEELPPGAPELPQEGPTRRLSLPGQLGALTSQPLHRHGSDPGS

SMILES | hERG current change (%, negative = inhibition) at 10uM
CCCc1cc(C(=O)N(C)CC(=O)Nc2ccc(OCC)c(OCC)c2)sc1C | -24.6%
CC(C)c1cc(C(F)(F)F)n2nc(C(=O)O)cc2n1 | -10.6%
Cc1ccc(-n2ncc3c(=O)n(CC#N)cnc32)cc1 | -5.68%
Cc1ccc(N2CC(c3nc4ccccc4[nH]3)CC2=O)c(C)c1 (centres unmarked) | -4.29%
CCOc1ccccc1N(CC(=O)Nc1ccc(S(=O)(=O)N2CCOCC2)cc1)S(=O)(=O)c1ccc(Cl)cc1 | -4.59%
CN(C)c1ccc(C(=O)Nc2cccc(S(=O)(=O)N3CCCC3)c2)cc1 | -2.51%
Cc1ccc(NC(=O)/C=C/c2ccc3c(c2)OCO3)cc1S(=O)(=O)N1CCOCC1 | -13%
Cc1cc(C)n(S(=O)(=O)c2ccc3oc(=O)ccc3c2)n1 | -8.4%
O=C(CCS(=O)(=O)c1ccc(Cl)cc1)Nc1ccc(F)cc1 | 0.345%
COc1ccc(NC(=O)C(c2ccc(C)cc2)N(C)C(=O)Cc2cccs2)cc1 (centres unmarked) | -11%
O=C1C2C3C=CC(C3)C2C(=O)N1CCC(=O)N1CCc2ccccc21 (centres unmarked) | -15.3%
Cl.NCCNC(=O)c1ncsc1-c1cccc(F)c1 | 17.4%
O=C(CCC(=O)Nc1ccc(Br)cc1)N/N=C/c1ccc(F)cc1 | 7.04%
Cn1c(=O)c2c(=O)cc(NNC(=O)CC#N)[nH]c2n(C)c1=O | 16.6%
CC1=CC(C)C2(COC(=O)Nc3ccccc3)COC(C)C1C2C (centres unmarked) | -3.03%
CCc1c(C)nc2ncnn2c1N1CCN(S(=O)(=O)c2ccc(OC)cc2)CC1 | -36%
Cc1cc(C)nc(NC(=O)Nc2ccc(F)cc2F)n1 | -3.43%
Cc1cccc(N=C2NN=C(c3ccc4c(c3)OCCO4)CS2)c1 | -3.09%
Cc1ccc(C(C)C)c(OCCN)c1.Cl | 7.99%
COc1cccc(C(=O)CC(=O)C(=O)Nc2ccc([N+](=O)[O-])cc2C)c1 | 15.7%
COc1ccccc1N1CCN(Cc2ccc(OC)c3ccccc23)CC1 | -5.46%
COc1ccc(NC(=O)CSc2nnc(Cn3c(=O)sc4ccccc43)n2C)c(OC)c1 | -21.3%
COc1ccc(CNC(=O)CN2CCN(c3cccc(C)c3C)CC2)cc1 | -8.46%

SMILES | hERG current change (%, negative = inhibition) at 10uM
CCC(=O)N(CC)c1nc(-c2cc(OC)ccc2OC)cs1 | 15%
CC(=O)Nc1ccc(NC2(C)C(=O)c3ccccc3C2=O)cc1 | 0.43%
Nc1nc(C23CC4CC(CC(C4)C2)C3)[nH]c(=O)n1 | 17.8%
Cc1cccc2cc(C(c3nnnn3C(C)(C)C)N(Cc3ccco3)CC3CCCO3)c(=O)[nH]c12 (centres unmarked) | -33.3%
CC(=O)Nc1cc(-c2ccc(F)cc2)[nH]n1 | 15.5%
COCCNC(=O)CSc1nc2ccccc2c(=O)n1CCC(=O)NCCc1ccc(OC)c(OC)c1 | 11.8%
CCOC(=O)c1c(C)[nH]c(C(=O)CSc2nnc(-c3ccncc3)n2CC)c1C | -23.3%
c1ccc(OCc2nnc3sc(C4COc5ccccc5O4)nn23)cc1 (centres unmarked) | 4.11%
c1ccc(OCc2nn3c(C4CCCCC4)nnc3s2)cc1 | -6.62%
Cc1cc(OCC(=O)NCc2nc(-c3ccccc3)no2)c(C)cc1Br | 15.5%
NC(=O)CC(NC(=O)Cc1ccc(Cl)cc1)c1ccc(NCCc2ccccc2F)c([N+](=O)[O-])c1 (centres unmarked) | -12.5%
NNC(=O)COc1ccc(-c2n[nH]c(C(F)(F)F)c2-c2ccc(Br)cc2)c(O)c1 | 2.84%
CCN(CC)Cc1c(C(=O)N2CCc3ccccc3C2)nc2ccc(Cl)cn12 | -13.1%
O=C(Nc1ccccc1N1CCOCC1)c1ccc(N2CCCC2=O)cc1 | -11.8%
CSc1nc2sc3c(c2c(=O)[nH]1)CCCC3 | 13.9%
Cc1nc2c(C#N)c(-c3ccc(Cl)cc3)ccn2n1 | 2.92%
Cc1ccc(N2CCCCn3c2nc2c3c(=O)[nH]c(=O)n2C)cc1 | -16.5%
CC(C)Oc1cccc(C(=O)N2CCCC2)c1 | 9.89%
CCOC(=O)c1ccc(CSc2nncn2N)o1 | 22.4%
O=C([O-])c1ccccc1-[n+]1c(-c2ccccc2)cc(-c2ccccc2)cc1-c1ccccc1 | -3.82%
CSc1ncc(C(=O)Nc2ccccc2C)c(C)n1 | 12.5%
COc1cccc(C2/C(=C(\O)c3ccc4c(c3)OCCO4)C(=O)C(=O)N2Cc2cccnc2)c1 (centres unmarked) | 11.1%
CCc1noc(C)c1C(=O)Nc1cc(S(=O)(=O)N2CCCCC2)ccc1N(C)C | -12.9%

SMILES | hERG current change (%, negative = inhibition) at 10uM
O=C(C[N+]1(CC#Cc2ccccc2)CCCCC1)c1ccccc1.[Br-] | -3.09%
COc1ccc(NC(=O)CSc2nc(N)c(-c3ccccc3)c(=O)[nH]2)cc1 | -0.59%
Cc1cc(C(=O)NCCc2ccc(Cl)cc2)c(C)o1 | 13.4%
Cc1nc(C#N)c(NCc2ccc3c(c2)OCO3)o1 | 12.1%
CSc1cccc(NC(=O)Nc2ccccc2)c1 | -4.85%
CN(C)/C=N/c1ncc(C(=O)c2ccc(Cl)cc2Cl)s1 | -6.27%
O=C(Nc1ccccc1)C1CCN(S(=O)(=O)c2ccc3c(c2)OCCO3)CC1 | 0.64%
COCCN(C(=O)CCC(=O)Nc1nccs1)C(C(=O)NC(C)(C)C)c1ccc(Cl)cc1 (centres unmarked) | -5.67%
COc1ccccc1-c1noc(-c2ccccc2C(=O)NCc2ccco2)n1 | -23.7%
Nc1c(-c2ccccc2)cnn1-c1ccc(C(=O)O)cc1 | -5.89%
O=C(COC(=O)Cn1cc(C(F)(F)F)ccc1=O)Nc1ccccc1 | 11.9%
Cc1nn(Cc2ccccc2)c(C)c1C(=O)NC1CCCc2ccccc21 (centres unmarked) | -13.4%
CN1CCN(S(=O)(=O)c2ccc(Cc3ccc(S(=O)(=O)N4CCN(C)CC4)cc3)cc2)CC1 | 1.53%
CC(CN1C(C)CCCC1C)OC(=O)c1ccccc1Cl (centres unmarked) | -26.8%
CCc1ccc(/C=N/NC(=O)c2cc(-c3cccc([N+](=O)[O-])c3)n[nH]2)cc1 | -0.299%
CN(c1nc2nonc2nc1NC1CC1)C1CCOC1 (centres unmarked) | 11.3%
CN(Cc1c(C(=O)N/N=C/c2ccc(O)cc2)nnn1-c1nonc1N)C1CCCCC1 | 8.26%
O=C(CN1C(=O)C2CCCCC2C1=O)Nc1nccs1 (centres unmarked) | 19.1%
CCCn1c(SCC(=O)N2CCCC(C)C2)nnc1-c1ccccn1 (centres unmarked) | 2.2%
O=C(Cc1ccccc1)N1CCC(c2nc3ccccc3[nH]2)CC1 | -18.9%
COc1cc(NS(=O)(=O)c2cc3[nH]c(=O)c(=O)[nH]c3cc2C)cc(OC)c1OC | 0.206%
O=C(CC(C(=O)N1CCc2ccccc21)n1ccnc1)N1CCc2ccccc2C1 (centres unmarked) | -49.7%
O=C(CCSCc1ccc(Cl)cc1)NCc1cccnc1 | -23.5%

SMILES | hERG current change (%, negative = inhibition) at 10uM
NC(=S)Nc1nc2ccccc2[nH]c1=O | 9.15%
O=C(/C(=N\Nc1ccc([N+](=O)[O-])cc1)Sc1nnnn1-c1ccccc1)c1ccccc1 | 17.9%
Cc1cccc(OCCC(=O)OC(C)C(=O)Nc2ccc(Cl)cn2)c1 (centres unmarked) | -36.7%
CN1CCN(CCCNC(=O)c2cc3c(=O)oc4ccccc4c3s2)CC1 | -14.2%
CCOc1ccc2noc3c2c1C(=O)c1ccccc1-3 | 11.3%
COCCCN1CC(=O)N2C(c3cccc(OC)c3)c3[nH]c4ccccc4c3C[C@H]2C1=O (some centres unmarked) | -14.3%
Cn1ncc(Br)c1C(=O)N1CCOCC1 | -17.1%
N#C/C(=C(/O)c1cccs1)c1nnc2n1CCCCC2 | 4.49%
Cc1ccc(S(=O)(=O)CCC(=O)OCc2ccccc2F)cc1 | -1.21%
CC(C)Oc1ccc(C(=O)/C=C2/C(=O)Nc3ccccc32)cc1 | 16.1%
O=C(/C=C/c1ccc(-c2ccccc2)o1)c1ccccc1 | 3.87%
Cc1ccc(S(=O)(=O)N2CCC(=O)N(CCOC(=O)Nc3ccc(F)cc3)CC2)cc1 | -34%
COc1ccc(-c2c[n+](CC(=O)N3c4ccccc4Sc4ccccc43)c3n2CCC3)cc1.[Cl-] | -38.2%
CNS(=O)(=O)c1ccc(C(=O)NCC(=O)NC(C)c2cccs2)cc1 (centres unmarked) | -1.69%
O=C(CSc1nc(-c2ccc(F)cc2)cs1)Nc1ccccn1 | 16.4%
O=C(Nc1ccc2c(c1)OCO2)c1cc(-c2cccnc2)nc2ccccc12 | 0.957%
CCOc1ccc(C(=O)Nc2ccccc2OC(F)F)cc1 | 0.00868%
CCn1c2ccccc2c2cc(NC(=O)C(=O)NCC3CCCO3)ccc21 (centres unmarked) | -6.57%
CC(=O)Nc1nc(COc2ccccc2)cs1 | -4.04%
CCS(=O)(=O)N1N=C(c2ccc(NS(C)(=O)=O)cc2)CC1c1ccccc1 (centres unmarked) | -62.1%
